# Data taken from paper PMC4336329 (PLoS ONE, 2015).
# The campaign covered roughly 310,000 compounds. About 14,000 (4.5%) showed an effect of 50% or more. Effects have a minus sign here. The list shows a part of the results.
# Biological target: human ether-à-go-go-related gene (hERG) potassium channel (human, UniProt Q12809)
# Assay: primary screen, population patch clamp on CHO cells stably expressing hERG
# 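Also: peak tail current of the secondary pulse compared with the same well before compound.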
# human ether-à-go-go-related gene (hERG) potassium channel, sequence (Q12809 whole entry, looked up): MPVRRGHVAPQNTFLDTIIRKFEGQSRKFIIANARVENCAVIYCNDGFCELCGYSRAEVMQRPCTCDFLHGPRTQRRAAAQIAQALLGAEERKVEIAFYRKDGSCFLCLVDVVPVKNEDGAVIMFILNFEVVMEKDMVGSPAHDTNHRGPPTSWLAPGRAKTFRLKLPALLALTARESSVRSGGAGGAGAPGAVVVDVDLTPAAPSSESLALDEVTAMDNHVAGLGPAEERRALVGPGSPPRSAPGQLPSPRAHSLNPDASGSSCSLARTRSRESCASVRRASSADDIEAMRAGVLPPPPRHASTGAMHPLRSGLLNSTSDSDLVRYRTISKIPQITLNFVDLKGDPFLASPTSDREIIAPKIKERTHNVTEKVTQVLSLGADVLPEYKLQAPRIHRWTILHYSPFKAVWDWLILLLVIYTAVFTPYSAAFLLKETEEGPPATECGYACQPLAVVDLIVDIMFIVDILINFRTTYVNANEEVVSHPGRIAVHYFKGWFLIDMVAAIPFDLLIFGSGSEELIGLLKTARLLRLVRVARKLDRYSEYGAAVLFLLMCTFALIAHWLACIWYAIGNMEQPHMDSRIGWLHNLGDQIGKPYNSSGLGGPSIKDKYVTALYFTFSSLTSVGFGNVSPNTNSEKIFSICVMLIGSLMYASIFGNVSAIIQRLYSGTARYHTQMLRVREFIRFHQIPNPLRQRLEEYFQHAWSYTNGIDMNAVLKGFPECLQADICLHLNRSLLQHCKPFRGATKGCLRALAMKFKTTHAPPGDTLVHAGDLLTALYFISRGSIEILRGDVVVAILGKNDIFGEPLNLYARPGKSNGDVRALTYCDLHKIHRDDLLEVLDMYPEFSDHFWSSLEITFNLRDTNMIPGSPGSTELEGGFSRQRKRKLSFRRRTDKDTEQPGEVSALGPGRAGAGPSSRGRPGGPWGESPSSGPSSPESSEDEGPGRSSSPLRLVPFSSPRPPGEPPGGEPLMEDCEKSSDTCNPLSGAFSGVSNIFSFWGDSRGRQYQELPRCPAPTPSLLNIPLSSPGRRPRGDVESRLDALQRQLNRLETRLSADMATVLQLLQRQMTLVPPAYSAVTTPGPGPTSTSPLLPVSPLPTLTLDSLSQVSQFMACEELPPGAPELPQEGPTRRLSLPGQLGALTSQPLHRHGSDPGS
row,SMILES,"hERG current change (%, negative = inhibition) at 10uM"
1,CCn1c(NC(=O)Nc2ccccc2OC)nc2ccccc21,-17.8%
2,CC1(C)CC(NC(=O)COc2ccc(Br)cc2Cl)CC(C)(C)N1,-14.8%
3,CC(=O)N1N=C(c2ccc(Cl)cc2)OC1(C)C,-0.24%
4,Cc1ccc2[nH]c3c(c2c1)CCN1C(=O)OC(C)(C)C31C (stereo not drawn),22.3%
5,Cc1ccc(NC(=O)c2cc(S(=O)(=O)NCCC3=CCCCC3)ccc2F)cc1F,9.39%
6,COc1ccc(NC(=O)CS(=O)c2ccc(Br)cc2)cc1 (stereo not drawn),6.92%
7,CC(=O)N1CCc2cc(S(=O)(=O)NCCC(=O)NC3CCCc4ccccc43)ccc21 (stereo not drawn),2.54%
8,Cc1ccc(C(=O)NC(C(=O)Nc2ccccc2)c2ccccc2)cc1 (stereo not drawn),19.7%
9,O=C(Cn1c(O)c(/C=C2\C=Nc3ccc(Br)cc32)sc1=O)N1CCCC1,-4.32%
10,COc1ccc2[nH]c3ccc(OC)cc3c2c1,3.01%
11,COc1ccc(OCC(=O)Nc2nc3ccc(NC(C)=O)cc3s2)cc1,9.99%
12,c1ccc2c(-c3csc(-c4ccncc4)n3)c[nH]c2c1,14%
13,Cc1ccc(-n2c(=O)[nH]c3c(C(N)=O)nc(-c4ccc(C)o4)nc32)cc1,14.7%
14,O=C(O)c1cccc(N2C(=O)c3ccc4c5c(ccc(c35)C2=O)C(=O)N(c2cccc(C(=O)O)c2)C4=O)c1,-10.5%
15,CCOC(=O)Cn1c(S(=O)(=O)Cc2ccccc2)nc2ccccc21,-17.6%
16,CCC(=O)c1ccc2c(c1)N(CCCN(C)C)c1ccccc1S2.Cl,-63.5%
17,CC(C)Cc1nc2oc3c(NCC(C)O)ncnc3c2c2c1CCCC2 (stereo not drawn),-7.54%
18,O=C1c2cc(F)ccc2-n2c1nc1ccccc1c2=O,-7.95%
19,COc1cccc(/C=N/n2cnnc2)c1OCc1ccccc1,-2.39%
20,Fc1ccc(/C=N/NC(=S)Nc2cccnc2)cc1,0.793%
21,CCOc1ccc(S(=O)(=O)N2CCCC(C(=O)NCc3ccccn3)C2)cc1C (stereo not drawn),-17.4%

row,SMILES,"hERG current change (%, negative = inhibition) at 10uM"
1,O=C(Nc1nc(-c2ccccc2)cs1)c1ccc(N2CCOCC2)c([N+](=O)[O-])c1,3.12%
2,O=C(CC1C(=O)NCCN1CC1CCCCC1)NCc1ccccc1Cl (stereo not drawn),-5.9%
3,COc1cc(/C=N/Nc2ccc(Cl)c(C(=O)O)c2)ccc1OC(=O)c1ccco1,6.99%
4,Cc1cc(=O)[nH]c(N/N=C/c2ccc(Br)s2)n1,-13.9%
5,O=c1ccc(-c2ccc([N+](=O)[O-])cc2)nn1-c1ccccc1,-55%
6,CCC1c2ccc(C)n2CCN1C(=O)Nc1ccccc1OC (stereo not drawn),9.92%
7,C/C=C/c1ccc(OCCOc2cccc3cccnc23)c(OC)c1,20.3%
8,COc1ccc(OCCN2CCN(C3CC(=O)N(CCC(C)C)C3=O)CC2)cc1 (stereo not drawn),-63.4%
9,Cc1ccc(-c2nnn(CC(=O)Nc3cccc4cccnc34)n2)o1,-19.5%
10,CCCCn1c(N)c(N(Cc2ccccc2OC)C(=O)CC2OC(=O)c3ccccc32)c(=O)[nH]c1=O (stereo not drawn),2.32%
11,CC(C)CN(C(=O)COC(=O)/C=C/c1cccs1)c1c(N)n(Cc2ccccc2)c(=O)[nH]c1=O,-1.55%
12,CC(C)NC(=O)c1ccc(N(Cc2ccccc2)S(C)(=O)=O)cc1,18.2%
13,COc1ccc(NC(=O)[C@@H]2[C@@H]3C(=O)N(C4CCCCC4)C(=O)[C@@H]3C3c4ccccc4C=CN32)cc1 (stereo partly drawn),-4.46%
14,CCN1CCC2(CCN(C(=O)c3cc(COc4cc(C)ccc4C)on3)C2)C1 (stereo not drawn),-54.8%
15,C[C@@]12C(=O)N(c3ccc(F)cc3)C(=O)N1[C@@H]1c3ccccc3OC[C@@H]1[C@H]2c1ccccc1,8.78%
16,CCOc1ccc(-c2nn3c(-c4ccccc4)nnc3s2)cc1,-9.98%
17,CN(Cc1nc2ccccc2n1C)c1ccccc1,6.41%
18,COc1ccc(N(C)C(=O)c2oc(=O)c3ccccc3c2-c2ccccc2)c(OC)c1,-8%
19,CCC1C(=O)c2ccccc2N(C)C1=O (stereo not drawn),38.2%
20,CC(=O)Nc1ccc(NC(=O)C(C)OC(=O)c2ccccc2Sc2ccccc2C#N)cc1 (stereo not drawn),-9.51%
21,Cc1ccc(C)c(S(=O)(=O)N2CCN(C(=O)C3CCN(c4ncnc5sc(C)c(C)c45)CC3)CC2)c1,-13.5%
